The target in one assay is T1, BMP9 (UniProt Q9UK05 320-429).
T1 construct: Ligand injected over the captured receptor protein
T1 sequence (looked up): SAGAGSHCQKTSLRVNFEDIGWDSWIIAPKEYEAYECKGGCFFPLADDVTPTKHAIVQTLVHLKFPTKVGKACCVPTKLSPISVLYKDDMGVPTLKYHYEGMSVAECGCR
The assay can be described thus: Biacore SPR; protein captured by anti-Fc antibody, ligand injected. How it is done:
(§1) These protein complexes were independently captured in the system using an anti-Fc antibody. Ligands were injected and allowed to flow over the captured receptor protein. Results are summarized in the table below, in which ligand off-rates (kd) most indicative of effective ligand traps are denoted by bold text.
Background: Surface plasmon resonance follows binding to a sensor surface in real time, without labels.

The next assay addresses T2, BMP10 (UniProt O95393 317-424).
T2 construct: Ligand injected over the captured receptor protein
T2 sequence (looked up): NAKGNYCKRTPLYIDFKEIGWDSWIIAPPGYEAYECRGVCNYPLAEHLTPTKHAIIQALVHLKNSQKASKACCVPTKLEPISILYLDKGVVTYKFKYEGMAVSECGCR
The description is as above. How it is done: as §1

B1: ALK1-Fc:Fc monomeric complex (Fc fusion)
chain: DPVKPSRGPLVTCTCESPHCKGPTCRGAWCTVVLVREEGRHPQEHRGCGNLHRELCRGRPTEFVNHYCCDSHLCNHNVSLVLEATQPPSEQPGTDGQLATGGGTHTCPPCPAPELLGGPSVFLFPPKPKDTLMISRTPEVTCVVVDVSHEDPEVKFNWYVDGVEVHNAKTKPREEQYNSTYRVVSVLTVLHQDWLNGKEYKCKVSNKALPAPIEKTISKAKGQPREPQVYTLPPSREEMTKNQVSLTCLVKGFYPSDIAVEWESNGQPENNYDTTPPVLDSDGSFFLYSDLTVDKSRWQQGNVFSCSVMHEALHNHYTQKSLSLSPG
As usually defined, the Kd is the equilibrium constant for the complex coming apart. A low value points to higher affinity. The koff is the first-order rate constant of dissociation. Lower therefore signals a long-lived complex. Broadly, the kon is the second-order rate constant of association. In the assay with BMP9, B1 displayed a Kd of 210 pM, a koff of 0.0011 s⁻¹ and a kon of 5.1e+06 M⁻¹ s⁻¹. In the assay with BMP10, this molecule returned a dissociation constant Kd of 69 pM, a koff of 0.00051 s⁻¹ and a kon of 7.5e+06 M⁻¹ s⁻¹.

B2: ENG([…])-Fc:ALK1-Fc heterodimer (Fc fusion)
chain 1: ETVHCDLQPVGPERDEVTYTTSQVSKGCVAQAPNAILEVHVLFLEFPTGPSQLELTLQASKQNGTWPREVLLVLSVNSSVFLHLQALGIPLHLAYNSSLVTFQEPPGVNTTELPSFPKTQILEWAAERGPITSAAELNDPQSILLRLGQAQGSLSFCMLEASQDMGRTLEWRPRTPALVRGCHLEGVAGHKEAHILRVLPGHSAGPRTVTVKVELSCAPGDLDAVLILQGPPYVSWLIDANHNMQIWTTGEYSFKIFPEKNIRGFKLPDTPQGLLGEARMLNASIVASFVELPLASIVSLHASSCGGRLQTSPAPIQTTPPTGGGTHTCPPCPAPELLGGPSVFLFPPKPKDTLMISRTPEVTCVVVDVSHEDPEVKFNWYVDGVEVHNAKTKPREEQYNSTYRVVSVLTVLHQDWLNGKEYKCKVSNKALPAPIEKTISKAKGQPREPQVYTLPPSRKEMTKNQVSLTCLVKGFYPSDIAVEWESNGQPENNYKTTPPVLKSDGSFFLYSKLTVDKSRWQQGNVFSCSVMHEALHNHYTQKSLSLSPGK
chain 2: [in this place about 100 residues][in this place about 250 residues]
notes: also called ENG-Fc:ALK1-Fc heterodimer
B2: in the assay with BMP9, the dissociation constant (Kd) came to 35 pM, the dissociation rate constant (koff) was 0.00039 s⁻¹ and the on-rate constant (kon) amounted to 1.1e+07 M⁻¹ s⁻¹. In the assay with BMP10, this molecule registered a dissociation constant Kd of 33 pM, an off-rate (koff) of 0.00047 s⁻¹ and an on-rate (kon) of 1.4e+07 M⁻¹ s⁻¹.

Values taken from patent US20200071382A1 (published 2020).
